According to PubChem BioAssay AID488969 (Vanderbilt High Throughput Screening Facility, 2010):
Whole data set: some 110,000 compounds, median “z-score” near -0.1, cut for the highest 2% near 2. Some of the results follow. Calls of active or inactive are those of the source.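 Rule for the calls: active = z-score in the third read window above 3 or below -3; inactive = the rest.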

target: Metabotropic glutamate receptor 8 (Rattus norvegicus) (UniProt P70579); experiment: mGluR8 Gi/Go-coupled signaling modulation – cell-based, rat, thallium flux, HTS, primary screen (AID 488969); details: HEK293 rat mGluR8, GIRK (G protein-gated inwardly rectifying potassium channel) thallium flux, FluoZin2; at 10 µM; stronger effect = higher value; submaximal glutamate (EC20) added with thallium
Sequence of UniProt P70579 (P70579 whole entry, looked up): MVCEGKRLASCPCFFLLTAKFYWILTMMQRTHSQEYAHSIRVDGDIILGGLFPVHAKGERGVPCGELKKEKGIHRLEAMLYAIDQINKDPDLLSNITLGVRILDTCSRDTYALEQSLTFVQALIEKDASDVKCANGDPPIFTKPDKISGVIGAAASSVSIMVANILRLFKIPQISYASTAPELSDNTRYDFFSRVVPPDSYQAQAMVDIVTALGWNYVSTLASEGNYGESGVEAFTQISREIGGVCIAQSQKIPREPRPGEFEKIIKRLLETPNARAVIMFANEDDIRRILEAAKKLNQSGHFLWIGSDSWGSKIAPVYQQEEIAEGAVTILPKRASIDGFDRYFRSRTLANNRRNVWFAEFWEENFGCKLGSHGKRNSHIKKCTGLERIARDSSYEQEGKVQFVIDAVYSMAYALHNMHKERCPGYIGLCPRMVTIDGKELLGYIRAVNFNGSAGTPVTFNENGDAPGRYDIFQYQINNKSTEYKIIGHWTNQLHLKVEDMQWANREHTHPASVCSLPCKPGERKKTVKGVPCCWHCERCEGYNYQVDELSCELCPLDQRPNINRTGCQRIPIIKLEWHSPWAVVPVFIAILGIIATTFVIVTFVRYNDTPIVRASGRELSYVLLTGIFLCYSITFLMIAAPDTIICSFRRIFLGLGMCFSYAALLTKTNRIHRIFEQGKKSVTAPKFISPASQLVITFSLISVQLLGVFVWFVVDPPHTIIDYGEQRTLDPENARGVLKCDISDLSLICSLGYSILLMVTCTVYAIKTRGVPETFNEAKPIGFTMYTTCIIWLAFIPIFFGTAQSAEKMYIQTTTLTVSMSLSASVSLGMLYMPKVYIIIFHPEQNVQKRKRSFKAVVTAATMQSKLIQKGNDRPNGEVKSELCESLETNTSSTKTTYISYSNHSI

Compound	z-score
Cc1ccc(Oc2nc(-c3ccccc3)ncc2S(C)(=O)=O)cc1	-0.315
O=C1c2ccccc2CN1CCNS(=O)(=O)c1ccc2ccccc2c1	0.362
CCOC(=O)c1c(CN(C)C)n(-c2ccccc2)c2cc(Br)c(OC)cc12	0.186
c1ccc(Nc2nnc(SCc3cccc4ccccc34)s2)cc1	0.286
COC(=O)CSC1=C(C#N)C(=O)NC(c2ccccc2)S1 (stereo not given)	-0.603
O=C(Cn1cc[n+](CC(=O)c2ccccc2)c1)c1ccccc1	-0.184
Cc1ccc(/C=C/C(=O)N2CCC(Cc3ccccc3)CC2)cc1	-0.288
Cc1ccc(S(=O)(=O)/N=C/N(C)C)cc1	0.0462
COc1cccc(OCC(=O)Nc2ccc(OC)c(OC)c2)c1	0.535
c1ccc(Nc2nc(N3CCCC3)nc(N3CCCC3)n2)cc1	-0.0932
FC(F)(F)c1nnc(-c2ccccc2)nc1Oc1ccccc1	-0.233
CC(=O)NC(Cc1cccc(C)c1)C(=O)NC1CCN(c2ncccc2[N+](=O)[O-])CC1 (stereo not given)	-0.444
Cc1cccc(NC(=O)CN(c2ccc(C(C)C)cc2)S(=O)(=O)c2c(C)nn(C)c2C)n1	2.21
CSc1c(SCc2ccccc2)cnn(Cc2ccccc2)c1=O	-0.945
COc1ccc(N2CCN(C(=O)CSc3nnc4c(C)cc5ccccc5n34)CC2)cc1	-0.18
Fc1ccc(NC(=S)Nc2cccc(Cl)c2)cc1	1.26
CCn1cc(/C=N/NC(=O)c2ccc3c(c2)OCO3)cn1	-0.194
O=C(Nc1ccon1)c1cc2c(s1)CCCCCC2	-0.664
O=P(COc1ccccc1)(c1ccccc1)c1ccccc1	-0.356
CCCCCCCCNC(=O)c1cccnc1SCC(=O)Nc1ccccc1OC	-0.724
CCOC(=O)c1c(C(C)(C)C)oc2ccc(O)cc12	-0.177
CC(C)CN(CC(C)C)S(=O)(=O)c1cc([N+](=O)[O-])ccc1N1CCCCCC1	-0.0703

Compound	z-score
COC(=O)CSc1nnc(NC(=O)/C=C\c2ccc3c(c2)OCO3)s1	0.115
CCCC(=O)Nc1nc2ccc(NC(=O)c3cccnc3)cc2s1	1.81
O=C(Cc1cccs1)N(Cc1cccs1)C1(C(=O)NC2CCCC2)CCCCC1	0.556
Cc1ccc(NC(=O)N(C2CCCCC2)C(C)c2cccnc2)cc1C (stereo not given)	0.127
CCOC(=O)N1CCN(C(=S)NC(=O)c2ccnn2C)CC1	-0.125
COc1ccc(/C=C/c2nc3sc4c(c3c(=O)o2)CCC4)cc1	active: -3.25
COc1cc(OC)c(C2N(c3ccc(Cl)c(Cl)c3)C(=O)C3CCCN32)cc1OC (stereo not given)	0.743
COc1ccc(CCC(=O)NCCc2cn3c(C)csc3n2)cc1	-0.294
Cc1ccc(C)c(NC(=S)c2ccc3ccccc3n2)c1	0.103
CCCCn1c2nc3ccccc3nc2c2c(=O)n(CCC)cnc21	-0.275
CCOc1nc(NC(=O)NS(=O)(=O)Oc2ccccc2Cl)nc(-c2ccccc2)n1	-0.308
CN(CC(=O)NCCN1CCCCCC1)S(=O)(=O)c1cccc2nsnc12	0.696
CC1(C)Cc2cccc(OCC(=O)Nc3nccs3)c2O1	-0.16
COc1ccc(N=C2NN=C(c3ccc4c(c3)OCCO4)CS2)cc1	0.00257
O=C(Nc1cccc(Cl)c1)c1ccc(Cn2cc(Cl)cn2)cc1	-0.352
COc1ccc(CN(C(=O)Cc2c[nH]c3ccccc23)C(C(=O)NC2CCCCC2)c2ccc(C)o2)cc1 (stereo not given)	-0.212
COC(=O)C1=C(C)NC2=C(C1c1ccc(O)cc1)S(=O)(=O)c1ccccc12 (stereo not given)	-0.538
CC(Oc1ccc(Cl)cc1)c1ccnn1S(=O)(=O)c1ccccc1 (stereo not given)	-0.504
CC1=C[C@H]2Cc3cc(C)cc(C)c3S(=O)(=O)[C@@H]2C=C1	-0.241
COc1ccc(NS(=O)(=O)c2cc(NC(=O)CNC(=O)c3ccc(C)s3)ccc2Cl)cc1	0.551
N#Cc1nc(Cc2cccc3ccccc23)oc1NCc1ccco1	0.86
CCN(CC)C(=O)C(=O)N/N=C/c1ccc(C(=O)OC)cc1	-0.309

Compound	z-score
CCOC(=O)c1ccc(NC(=O)COc2ccc(S(=O)(=O)NC(C)C)cc2)cc1	-0.075
CN(C(=O)/C=C/c1ccccc1)C1CCS(=O)(=O)C1 (stereo not given)	-0.119
COn1cnnc1-c1ccccc1	-0.212
Cc1nc2ccc(S(=O)(=O)NCC(=O)N3CCCC(C)C3)cc2s1 (stereo not given)	-0.296
c1ccc2nc(-c3ccc(N4CCOCC4)cc3)ccc2c1	0.0936
O=C(OCC(=O)N1CCN(C(=O)c2ccco2)CC1)c1cc(-c2ccco2)nc2ccccc12	-1.33
CCC(=O)n1nc(-c2ccccc2)nc1SCC(=O)Nc1ccc(C)cc1	0.0847
CC(=O)Nc1nonc1-c1nc2ccccc2n1CCC(C)C	0.00782
Cc1cccc2nc(C(F)(F)F)nc(=O)n12	-0.0106
COc1ccccc1NC(=O)CN(Cc1ccco1)C(=O)c1cccs1	0.85
CCOC(=O)Cc1cc(=O)[nH]c(/N=C(/NC(=O)c2ccccc2)Nc2ccccc2C(F)(F)F)n1	-0.154
CC(=O)Nc1ccc(Oc2ncccn2)cc1	active: 7.84
Cc1ccc(C(C(=O)Nc2ccc3c(c2)OCO3)N(C)C(=O)/C=C\c2ccc3c(c2)OCO3)cc1 (stereo not given)	-0.403
Cn1c(CC(=O)NCCO)c(Sc2ccccc2)c2ccccc21	-0.429
CC(C)NC(=S)Nc1cccc2cnccc12	-0.271
Cc1cc(C(F)(F)F)nc(Nc2nc(C)c3ccccc3n2)n1	-0.0567
O=C(c1ccco1)N1CCN(c2ncnc3c2[nH]c2ccccc23)CC1	0.737
CCOC(=O)C1=NN(C(=O)c2ccc(C)cc2)C(O)(c2ccc(Cl)cc2)C1 (stereo not given)	active: 10.4
CCOC(=O)N1CCN(C(=O)C2CCN(S(=O)(=O)c3ccccc3)CC2)CC1	-0.151
O=C1C(Cl)=C(N2CCOCC2)C(=O)N1c1ccccc1	0.0319
COc1ccc(C(=O)NC(=S)NNC(=O)c2c(-c3ccccc3)noc2C)cc1	0.757
Cc1ccc(S(=O)(=O)NCCC(=O)Nc2ccc(C)cc2C(=O)c2ccccc2)cc1	-0.4

Compound	z-score
O=c1[nH]ncn1-c1ccccc1C(F)(F)F	0.261
O=C(NCC(=O)N(Cc1cccs1)C(C(=O)NC1CCCCC1)c1ccncc1)c1ccco1 (stereo not given)	-0.208
O=c1cc(-c2ccccc2)[nH]c2nc3ccccc3n12	-0.423
CC(NC(=O)c1ccc(Br)s1)C1CCCO1 (stereo not given)	-0.504
COc1ccccc1NC(=O)CSc1nc(O)c(Cc2ccccc2)c(=O)[nH]1	0.381
CCOC(=O)CSc1nnc(CNC(=O)c2ccc(OC)c(OC)c2)n1C	-0.459
O=C(ON=C1CCN(S(=O)(=O)c2ccccc2)CC1)c1ccccc1	-0.044
N#Cc1c(NC(=O)C2CC(c3ccccc3Cl)=NO2)sc2c1CCC2 (stereo not given)	-0.539
O=C(c1ccc(Br)o1)N1CCN=C1SCc1cccc(F)c1	-0.798
O=C(NCc1ccc(F)cc1)c1cc(S(=O)(=O)N2CCOCC2)ccc1F	0.0221
CCOC(=O)c1c(NC(=O)COc2cccc3c2CCN(Cc2ccc(F)cc2)C3=O)sc2c1CCC2	-0.11
CN(Cc1ccccc1)C(=O)CCNC(=O)Cn1cnc2ccccc2c1=O	1.04
O=c1c(-c2nc3ccccc3s2)cccn1Cc1ccc(Cl)c(Cl)c1	0.0207
CC(C)CCn1c(SCC(N)=O)nc2c1c(=O)n(C)c(=O)n2C	-0.0328
Nc1nnc(SCC(=O)N2CCN(c3cccc(Cl)c3)CC2)n1-c1ccccc1	-0.234
Oc1ccccc1N=Cc1ccc[nH]1	0.222
Cc1ccc(N2C(=O)c3ccccc3C2Nc2ccccc2F)nc1 (stereo not given)	-1.12
CCOc1ccccc1/C=N/Nc1ccccc1[N+](=O)[O-]	-0.0673
CCC(SC1=Nc2ccccc2C2=NC(CC(C)C)C(=O)N12)C(=O)Nc1ccc2c(c1)OCO2 (stereo not given)	-0.407
CCN(CC)c1nc2ccccc2n2cnnc12	-0.635
O=C(O)CCCCCN1C(=O)C2CCCCC2C1=O (stereo not given)	-0.176
O=C(c1cnc(-c2ccc(Cl)cc2)s1)c1ccc(Cl)cc1Cl	-0.046

Compound	z-score
COc1ccc(C2C=C(c3ccc(C)c(C)c3)Nc3ncnn32)c(OC)c1OC (stereo not given)	-0.205
CC(C)(C)C1=NN(C(=O)c2ccccc2)C(O)(C(C)(C)C)C1 (stereo not given)	-0.79
CC(C)[C@H](NC(=O)NCCc1ccc(F)cc1)C(=O)O	-0.139
CC(NC(=O)Cn1cnc2c1c(=O)n(C)c(=O)n2C)c1ccccc1 (stereo not given)	-0.024
Brc1ccccc1-c1nnc2sc(Cc3ccccc3)nn12	-2.32
C=CCOc1c(CNc2ccc(C(=O)O)cc2)cccc1OCC	-0.161
COc1ccc(S(=O)(=O)NC(C)C(=O)Nc2ccccc2C(F)(F)F)cc1 (stereo not given)	-0.501
COc1ccccc1-n1c(SCC(=O)Nc2ccc(C)cc2)nc(O)cc1=O	-0.181
O=C(NCCN=C1NS(=O)(=O)c2ccccc21)c1ccco1	-0.129
CC(=O)OCCNc1cc(Sc2nc3ccccc3[nH]2)c2nonc2c1[N+](=O)[O-]	-0.363
Nc1c(C(O)(C(F)(F)F)C(F)(F)F)cc(C(O)(C(F)(F)F)C(F)(F)F)c2ccccc12	0.066
Cc1cc(C)cc(N(CC(=O)N2CCC(C)CC2)S(=O)(=O)c2ccccc2)c1	-0.168
CC(C)c1ccc(NC(=O)c2ccc(Br)o2)cc1	-1.18
Cc1ccc(OCc2nnc(SCC(=O)c3cccs3)n2-c2ccccc2)cc1C	0.316
Nc1nnc(SCC(=O)c2ccccc2)s1	-0.265
Cc1nn(C)c(C)c1/C=C/C(=O)c1cccs1	-0.104
COc1cc(/C=C(/C#N)c2ccccc2)ccc1Oc1ccc([N+](=O)[O-])cn1	-0.141
Cc1ccc2c(CC(=O)OCc3nc(N)nc(Nc4ccccc4C)n3)coc2c1	0.33
CCOc1ccc(NS(=O)(=O)c2cc(NC(=O)CCS(=O)(=O)c3ccc(C)cc3)ccc2OC)cc1	-0.103
COc1ccc(NC(=O)CC2C(=O)N(c3ccc(Cl)cc3)C(=S)N2CCc2ccncc2)cc1 (stereo not given)	-0.182
Cc1ccc(NC(=O)c2cccc(OCc3c(C)noc3C)c2)c(C)c1	-0.371
C=CCc1cccc(/C=N/c2ncn[nH]2)c1O	-1.01
